In test [1] the target is His-tagged c-Myc (UniProt P01106). Nature of the test: pull-down; purified His-tagged c-Myc pre-adsorbed to nitrilotriacetic acid-nickel beads, incubated with purified GST or GST-PRMT5 fragments F1, F2 or F3; both purified.
In test [2] the target is GST-PRMT5 R488A (human) (UniProt O14744). Kind of test: pull-down; GST pull-down: purified GST or GST-PRMT5 (wild type or mutant) as bait, purified His-tagged c-Myc as prey, Western blot with c-Myc antibody; both purified.
The target in test [3] is GST-PRMT5 (wild-type) (human) (UniProt O14744). The test is described as above.
Test [4] concerns the target Flag-tagged PRMT5 (human) (UniProt O14744). Nature of the test: co-IP; anti-Flag antibody-conjugated sepharose beads precipitate Flag-PRMT5 from cellular extracts of SGC7901 cells overexpressing it; endogenous c-Myc detected by Western blot; IgG as negative control. (Immunoblotting shows a protein as a band on a membrane.)

By UniProt entry, the sequences of proteins in these tests, tags left out. Where a name states a change or a piece, a line headed by the entry shows the natural chain unless it says otherwise.
UniProt P01106: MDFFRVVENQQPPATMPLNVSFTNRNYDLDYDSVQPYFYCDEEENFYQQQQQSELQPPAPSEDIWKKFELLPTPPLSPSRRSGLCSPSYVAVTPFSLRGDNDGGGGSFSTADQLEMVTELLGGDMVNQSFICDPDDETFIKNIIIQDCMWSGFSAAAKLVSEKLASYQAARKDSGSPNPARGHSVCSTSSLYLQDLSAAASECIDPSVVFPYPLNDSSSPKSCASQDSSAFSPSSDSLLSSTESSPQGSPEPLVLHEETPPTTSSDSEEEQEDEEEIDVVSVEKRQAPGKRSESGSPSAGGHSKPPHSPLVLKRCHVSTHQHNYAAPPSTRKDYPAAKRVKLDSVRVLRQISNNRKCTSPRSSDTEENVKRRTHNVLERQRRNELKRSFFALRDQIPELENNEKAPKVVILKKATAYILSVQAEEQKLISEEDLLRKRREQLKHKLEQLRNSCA
UniProt O14744: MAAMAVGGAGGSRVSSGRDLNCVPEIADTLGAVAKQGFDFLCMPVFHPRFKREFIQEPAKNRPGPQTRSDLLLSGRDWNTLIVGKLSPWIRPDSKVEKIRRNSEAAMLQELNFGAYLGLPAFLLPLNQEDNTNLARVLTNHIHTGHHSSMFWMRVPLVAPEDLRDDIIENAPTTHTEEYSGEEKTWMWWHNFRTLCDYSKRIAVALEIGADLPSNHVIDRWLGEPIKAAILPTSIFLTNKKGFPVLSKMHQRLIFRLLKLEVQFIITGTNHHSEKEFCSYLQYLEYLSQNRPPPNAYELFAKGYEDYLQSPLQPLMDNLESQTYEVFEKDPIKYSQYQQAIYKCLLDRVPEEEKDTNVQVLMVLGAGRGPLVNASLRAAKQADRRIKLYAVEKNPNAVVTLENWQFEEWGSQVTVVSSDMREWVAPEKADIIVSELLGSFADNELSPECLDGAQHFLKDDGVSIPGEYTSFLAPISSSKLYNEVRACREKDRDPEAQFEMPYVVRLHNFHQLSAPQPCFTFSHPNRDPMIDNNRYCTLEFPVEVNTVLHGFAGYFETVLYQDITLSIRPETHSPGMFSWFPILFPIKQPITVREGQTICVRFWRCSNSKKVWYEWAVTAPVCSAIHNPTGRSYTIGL

These are yes or no findings as the source states them, for the method shown. For part of these data: In cells and extracts the contact can be indirect. Some entries that bind do so weakly or less than the wild type.

Regarding “GST-PRMT5 F1 (amino acids 1-354) (from UniProt O14744 1-354) (domain or fragment)”, the binding result in test [1] is listed as “no binding”.
For “GST-PRMT5 F2 (amino acids 355-453) (from UniProt O14744 355-453) (domain or fragment)”, the binding result in test [1] is on record as “no binding”.
On the same count and under the same terms, the result for “GST-PRMT5 F3 (amino acids 454-637) (from UniProt O14744 454-637) (domain or fragment)” reads “binds”.
As for “His-tagged c-Myc (from UniProt P01106 1-454)”, the binding result in test [2] and in test [3] was “binds” throughout.
For “endogenous c-Myc (from UniProt P01106 1-454)”, in test [4], the binding entry was “binds”.

Values taken from article PMC7150477.
